From PubChem BioAssay AID652104 (National Center for Advancing Translational Sciences (NCATS), 2013)
In all, about 410,000 compounds went through this assay and about 7,200 (1.8%) were called active. The inconclusive results got no clear call from the source; some entries with a clear call stand among them for comparison. Calls follow the shape of the dose curve; as a rule, active = well fitted activation curve with a large enough effect; inconclusive = small, poorly fitted or top-dose-only effect, or another doubt; inactive = no such curve, though single readings can be large or run the other way. Potencies of inconclusive entries are left out as doubtful fits.

Test: qHTS of TDP-43 Inhibitors; also: nearly all actives have a fitted effect of over 50% in size; as to growth rescue (activation): % of control where 0% means no effect
Conditions: TDP-43 expressing yeast growth rescue, BacTiter-Glo, 24 h; growth rescue (activation): at 46.1 µM (top of the series) unless noted
Summary of the method: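 In this qHTS, compounds that restore growth of yeast expressing TDP-43 appear as activators. Cells (OD600=0.02, galactose medium, raffinose-pregrown) are incubated with compound 24 hr at 30 deg C and growth is quantified by BacTiter-Glo.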
Potency is read from the fitted curve at half-maximal effect; tags tell the direction and shape of the fitted curve.

| Compound | Potency | growth rescue (activation) |
| --- | --- | --- |
| COc1ccc(NC(=O)c2sc3nc(C)c(C(=O)Nc4ccc(C)cc4C)c(-c4ccc(C)o4)c3c2N)cc1 | inconclusive [activator, partial curve] |  |
| CCCn1nc(NC(=O)c2ccco2)c2cc3ccc(C)cc3nc21 | inactive |  |
| O=C(O)c1ccc2c(c1)S(=O)(=O)c1cc(N3CCN(c4cnccn4)CC3)ccc1C2=O | inactive |  |
| COc1cc(/C=C/C(=O)Nc2cc(C(F)(F)F)ccc2Cl)cc(OC)c1OC | active: 22.4 µM |  |
| COc1ccc(C(=O)Nc2nc3ccccc3s2)cc1 | inconclusive [activator, full curve] |  |
| COc1ccc(-c2ccnc(SCC(=O)N3CCN(c4ccccc4)CC3)n2)cc1 | inconclusive [activator, full curve] |  |
| N#CCSc1nc(N)c(C#N)c(C2CCCCC2)c1C#N | inconclusive [activator, single point] |  |
| Cc1cccc2cc(C3CC(c4ccco4)=NN3S(C)(=O)=O)c(Cl)nc12 (stereo unspecified) | inconclusive [activator, single point] |  |
| CCN(CC)c1ccc(C(=O)Nn2c(C)nc3ccccc3c2=O)cc1 | inconclusive [activator, partial curve] |  |
| COc1ccc(-c2nc(-c3cccs3)c(-c3cccs3)[nH]2)cc1OC | inconclusive [activator, partial curve] |  |
| CSc1cccc(NC(=O)c2nnn(CC(=O)Nc3cc(C)cc(C)c3)c2N)c1 | inconclusive [activator, single point] |  |
| CC1CCCC(NC(=O)c2cccc(N3CCCC3=O)c2)C1C (stereo unspecified) | inconclusive [activator, partial curve] |  |
| Cc1ccc(NC(=O)/C(C#N)=C/c2ccc(C)o2)cc1 | inconclusive [activator, full curve, poor fit] |  |
| Cc1ccc(NC(=O)c2oc3ccc(S(=O)(=O)N(C)C4CCCCC4)cc3c2C)cc1Cl | inactive |  |
| Cn1c(Cl)cnc1C1CC(=O)c2cc(Cl)ccc2O1 (stereo unspecified) | inconclusive [activator, full curve, poor fit] |  |
| CC1CN(C(=O)c2ccc(S(=O)(=O)Nc3ccccc3Cl)cc2)CC(C)O1 (stereo unspecified) | inconclusive [activator, full curve] |  |
| Cc1ccc(S(=O)(=O)NCC(=O)OCC(=O)N2CC(=O)Nc3ccccc32)cc1 | inconclusive [activator, single point] |  |
| Cc1cccc(NC(=O)C2COc3ccccc3O2)c1 (stereo unspecified) | inconclusive [activator, partial curve] |  |
| O=C1COc2ccccc2N1Cc1ccc(Cl)cc1 | active: 20 µM |  |
| CCCc1c(OCCCCc2nn[nH]n2)ccc(C(C)=O)c1O | inconclusive [activator, partial curve] |  |
| Cc1occc1C(=O)Nc1sc2c(c1C(N)=O)CCCCC2 | inconclusive [activator, single point] |  |
| COc1cccc2cc(C(=O)Nc3cc(Cl)ccc3N3CCOCC3)c(=O)oc12 | inactive |  |
| CC(C)CSc1nnc2c3ccccc3n(C)c2n1 | inconclusive [activator, full curve] |  |
| Nc1cc(-c2ccccc2)nn1Cc1ccc(Cl)cc1 | inactive |  |

| Compound | Potency | growth rescue (activation) |
| --- | --- | --- |
| CCS(=O)(=O)N1CC(=O)N(c2cccc(Cl)c2C)C(C)(C(=O)NC2CCCCC2)C1 (stereo unspecified) | inactive |  |
| O=C1C(CSCc2ccccc2)NC(=S)N1c1ccccc1 (stereo unspecified) | inactive |  |
| N/C(Cc1ccc([N+](=O)[O-])cc1)=N\OC(=O)c1ccco1 | inconclusive [activator, single point] |  |
| CCOc1ccc(-c2nc(C#N)c(NCC3CCCO3)o2)cc1 (stereo unspecified) | inconclusive [activator, single point] |  |
| CCOC(=O)c1cc(-c2ccccc2)n(CC(=O)N(C)c2ccc(OC)cc2)c1C | inactive |  |
| O=C(CSc1ccccc1Cl)NC1CCCc2ccccc21 (stereo unspecified) | inconclusive [activator, partial curve] |  |
| CCCc1nc(-c2cc3ccc(C)cc3[nH]c2=O)no1 | inactive |  |
| CCOC(=O)c1ccc(S(=O)(=O)NCC(c2ccc(N(C)C)cc2)c2c[nH]c3ccccc23)cc1 (stereo unspecified) | active: 3.16 µM |  |
| CCOC(=O)c1ccccc1NC(=O)COc1ccccc1 | inconclusive [activator, single point] |  |
| O=C(c1cccnc1)n1nc(NCc2ccccc2)nc1NCc1ccccc1 | inconclusive [activator, single point] |  |
| COC(=O)C1CCN(C(=O)c2cc(-c3ccc(Cl)s3)nc3ccccc23)CC1 | active: 35.5 µM |  |
| NS(=O)(=O)c1ccc(CCNC(=O)C2CCCCC2)cc1 | inconclusive [activator, partial curve] |  |
| COc1cccc2c1cc1c(=O)n(CC(=O)NC3CC3)nc(C)n12 | inactive |  |
| CC1(C)OC(c2ccccc2)=C/C(=C/C=N/NC(=O)c2ccncc2)O1 | inconclusive [activator, partial curve] |  |
| Cc1cccc(OCCCn2c(CCNC(=O)C3CCCCC3)nc3ccccc32)c1 | inactive |  |
| COc1cccc(-c2nc(SCC(=O)Nc3ccc4c(c3)OCCO4)c(-c3ccc(C)cc3)[nH]2)c1 | active: 20 µM |  |
| Cc1ccc(C(=O)NC(C)c2ccncc2)o1 (stereo unspecified) | inactive |  |
| COC(=O)c1ccc2nc(-c3ccc(C)cc3)c(Cc3ccc(C)cc3)n2c1 | inconclusive [activator, partial curve] |  |
| Cn1cccc1/C=N/n1c(-c2ccc(Cl)cc2Cl)n[nH]c1=S | inconclusive [activator, single point] |  |
| Cc1cccc(-n2cnc3cc(C(=O)N4CCc5ccccc54)ccc32)c1 | active: 12.6 µM |  |
| C/C=C/c1cc(CN2CCN(c3ccccc3)CC2)c(O)c(OC)c1 | inconclusive [activator, partial curve] |  |
| CCc1cccc(C)c1NC(=O)CSc1nc2c(c(=O)[nH]1)CCC2 | inactive |  |
| Cc1cc(C)cc(OCC(=O)N2CCC(c3nc4ccccc4s3)CC2)c1 | inconclusive [activator, single point] |  |
| CCOC(=O)Nc1ccc2c(c1)N(C(=O)CN1CCN3CCCC3C1)c1ccccc1CC2 (stereo unspecified) | inconclusive [activator, full curve, poor fit] |  |

| Compound | Potency | growth rescue (activation) |
| --- | --- | --- |
| COc1ccccc1/C=C1/C(=O)ON=C1C | active: 14.1 µM |  |
| O=C(NCc1cccs1)c1csc(COCCO)n1 | inconclusive [activator, full curve, poor fit] |  |
| Cn1cc(S(=O)(=O)c2cccc(Cl)c2)c(=O)c2cc(F)c(N3CCCCC3)cc21 | inactive |  |
| O=C(NCCc1ccc(Cl)cc1)c1ccc(CSCc2cccc(Cl)c2)o1 | active: 20 µM |  |
| O=C(c1ccccc1)c1cc2c(cc1[N+](=O)[O-])OCCO2 | inconclusive [activator, partial curve] |  |
| COc1ccccc1N1CCN(C(=O)CN(C)S(=O)(=O)c2ccc(C)cc2)CC1 | inconclusive [activator, partial curve, poor fit] |  |
| O=C(C1=NOC2(C1)C(=O)Nc1ccccc12)N1CCCCC1 (stereo unspecified) | inactive |  |
| COc1cccc(NC(=O)COC(=O)Cc2ccc(Cl)cc2)c1 | inconclusive [activator, partial curve] |  |
| Cc1ccc(C(=O)Nc2ccc3oc(-c4ccccc4C)nc3c2)cc1 | inconclusive [activator, partial curve] |  |
| CCCC(=O)c1ccc(N2CCN(C(=O)c3ccccc3)CC2)c(F)c1 | inconclusive [activator, single point] |  |
| CC(=O)N1CCc2c(sc3c2c(=O)n(-c2ccc(C)cc2)c(=O)n3Cc2ccccc2C)C1 | inconclusive [activator, single point] |  |
| Cc1ccc(NC(=O)C2COc3ccccc3O2)cc1S(=O)(=O)N1CCCCC1 (stereo unspecified) | inconclusive [activator, single point] |  |
| COc1ccc2oc(C(=O)N(C)Cc3ccc4c(c3)OCCO4)c(C)c2c1 | inconclusive [activator, single point] |  |
| CCOC(=O)N1CCN(c2nc3ccccc3n3cnnc23)CC1 | inactive |  |
| CCOC(=O)Cc1csc(NC(=O)NC2(C(F)(F)F)Oc3ccccc3O2)n1 | inconclusive [activator, partial curve] |  |
| CCc1ccc(CNC(=O)c2cnc3c(C)cccn3c2=O)cc1 | active: 15.8 µM |  |
| Cc1ccc(Nc2cc(C)c(C#N)c3nc4ccccc4n23)c(C)c1 | inconclusive [activator, partial curve] |  |
| CC(=O)c1ccc(S(=O)(=O)N2CCN(C(=O)CSc3ccc(C)c(C)c3)CC2)cc1 | inconclusive [activator, single point] |  |
| O=C(N/C=N/OCc1ccc(Cl)cc1Cl)NOCc1ncc(C(F)(F)F)cc1Cl | inconclusive [activator, single point] |  |
| COc1ccccc1NS(=O)(=O)c1cc(NC(=O)C(C)C)ccc1N1CCCCC1 |  | inactive: 8.82% [at 9.22 µM] |
| COc1cc(C2Nc3ccccc3-c3nnc(SCc4ccc(C)cc4)nc3O2)cc(OC)c1O (stereo unspecified) | inactive |  |
| CNC(=S)N/N=C/c1c(Cl)cccc1Cl | inconclusive [activator, partial curve] |  |
| COC(=O)c1cc(-c2ccc(Cl)cc2Cl)n[nH]1 | inconclusive [activator, full curve, poor fit] |  |
